Laboratory results: PubChem BioAssay AID1468 (National Center for Advancing Translational Sciences (NCATS), 2008)
Several values for one entry are separate records, joined by “and”; a condition that tells them apart may be missing. Equal values may be shown once. In all, about 280,000 compounds went through this assay and about 1,100 (0.39%) were called active. Inconclusive means that the source gave no clear call. Such entries were picked first, then a sample of the others. The call rests on the fitted dose curve; in most records, active means well fitted inhibition curve with a large enough effect; inconclusive means small, poorly fitted or top-dose-only effect, or effect the other way; inactive means flat fitted curve, though single readings scatter. A potency beside an inconclusive call is a rough fit, not a confirmed value.

Molecular target: Microtubule-associated protein tau (Homo sapiens) (UniProt P10636)
Chain of UniProt P10636 (P10636 whole entry, looked up): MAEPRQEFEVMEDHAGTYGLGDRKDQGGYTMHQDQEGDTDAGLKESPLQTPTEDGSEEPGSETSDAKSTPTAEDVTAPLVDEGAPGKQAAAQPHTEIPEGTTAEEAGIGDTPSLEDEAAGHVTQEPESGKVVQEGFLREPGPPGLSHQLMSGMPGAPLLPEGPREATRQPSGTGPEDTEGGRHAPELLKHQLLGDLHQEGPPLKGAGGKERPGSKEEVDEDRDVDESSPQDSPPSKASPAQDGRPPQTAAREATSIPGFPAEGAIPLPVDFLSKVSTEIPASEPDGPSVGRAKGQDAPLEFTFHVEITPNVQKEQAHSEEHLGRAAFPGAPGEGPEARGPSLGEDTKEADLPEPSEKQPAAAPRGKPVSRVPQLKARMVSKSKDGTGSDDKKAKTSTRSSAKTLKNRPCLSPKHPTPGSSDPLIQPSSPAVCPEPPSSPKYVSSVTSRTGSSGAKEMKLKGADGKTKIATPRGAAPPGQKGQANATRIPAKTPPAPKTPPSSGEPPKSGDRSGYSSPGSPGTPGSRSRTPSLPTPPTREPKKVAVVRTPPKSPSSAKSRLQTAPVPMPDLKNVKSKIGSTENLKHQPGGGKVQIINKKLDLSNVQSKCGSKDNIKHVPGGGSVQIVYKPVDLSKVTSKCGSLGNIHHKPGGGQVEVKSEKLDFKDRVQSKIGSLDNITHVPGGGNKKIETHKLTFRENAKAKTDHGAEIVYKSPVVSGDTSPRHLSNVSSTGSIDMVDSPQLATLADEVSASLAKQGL
Assay: qHTS for Inhibitors of Tau Fibril Formation, Fluorescence Polarization; further: nearly all actives have a fitted effect of over 55% in size
Conditions: K18 P301L tau heparin fibrillization, Alexa594 FP, 6 h; series mostly up to 57.7 µM
Procedure, shortened: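 FP of Alexa 594-tau after heparin (20 uM) induction. Substrate: human K18 P301L, 15 uM unlabeled, 0.24 uM labeled. Buffer 100 mM sodium acetate pH 7. 6 hr, 37 C.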
Potency means the concentration at half of the fitted maximal effect; tags describe the fitted curve by direction and shape.

SMILES | Potency
Cc1cccc(-c2nc(SCCCOc3ccccc3Cl)n3[nH]c(=O)cc3n2)c1 | inconclusive: 28.2 µM [inhibitor, partial curve]
O=C(Nc1ccc(F)c(Cl)c1)N1CCN(C(=O)c2nsc3ccccc23)CC1 | inactive
CC(=O)Nc1ccc(Nc2ncnc3c2c(-c2ccccc2)cn3-c2ccccc2)cc1 | inconclusive: 8.91 µM [activator, single point]
CCOc1cc(CNc2ccc(N(C)C)cc2)cc(Br)c1OCC(=O)NC(C)(C)C | active: 15.8 µM
Cc1ccccc1NC(=S)NC(NC(=O)COc1ccccc1)C(Cl)(Cl)Cl (centres undefined) | inconclusive: 20 µM [inhibitor, partial curve]
O=C(Nc1ccccc1C(=O)N/N=C/c1ccco1)c1ccc(Cl)cc1 | inconclusive: 2 µM [inhibitor, partial curve, poor fit]
CC(=O)c1cc(NC(=O)c2cccc(C(F)(F)F)c2)c(=O)oc1/C=C/N(C)C | inactive
COc1ccc(CNC(=O)Cn2c(SCC(=O)N(C)c3ccccc3)nc3ccccc32)cc1 | inactive
CCCCn1c(=O)n(-c2ccc(Br)cc2F)c(=O)c2c3c(sc21)CN(C(C)=O)CC3 | inconclusive: 39.8 µM [activator, single point]
COc1cc(C(=O)Nc2ccc3nn(-c4ccc(F)cc4)nc3c2)cc(OC)c1OC | inconclusive: 8.91 µM [inhibitor, single point]
O=C(COC(=O)c1ccc(Br)o1)Nc1cccc(S(=O)(=O)N2CCCCCC2)c1 | inconclusive: 14.1 µM [inhibitor, partial curve]
CCOC(=O)N/N=C(\C)c1ccc(-n2cnnn2)cc1 | inactive
Cc1ccc(OCC(=O)Nc2c(C(=O)c3ccccc3)oc3ccccc23)cc1C | inconclusive: 17.8 µM [inhibitor, partial curve, poor fit]
CCOC(=O)c1c(-c2ccccc2)[nH]c2ccc(O)cc12 | inconclusive: 7.08 µM [activator, partial curve]
CSc1ncc(Cl)c(C(=O)Nc2ccccc2Cl)n1 | inconclusive: 20 µM [inhibitor, single point]
O=S(=O)(CCC(F)=C(F)F)c1nnnn1C1CCCCC1 | inconclusive: 3.98 µM [inhibitor, single point]
O=C(COC(=O)c1cc(=O)[nH]c2ccc(Br)cc12)c1ccccc1 | inconclusive: 20 µM [inhibitor, partial curve]
O=C(NC(Cc1c[nH]c2ccccc12)C(=O)N/N=C/c1ccc(Br)cc1)c1cccs1 (centres undefined) | inconclusive: 39.8 µM [inhibitor, single point]
O=C(Nc1ccc2nc(SCC(=O)N3CCCC3)sc2c1)c1ccccc1 | inactive
CCOc1cc(C(=O)Nc2ccc(-c3nc4cc(C)ccc4o3)cc2)cc(OCC)c1OCC | inconclusive: 10 µM [inhibitor, partial curve]
NC(=O)CSc1nnc2n(-c3ccccc3)c(=O)c3c4c(sc3n12)CCCCC4 | inactive
O=C(Nc1ccc(-c2noc(-c3cccs3)n2)cc1)c1cccnc1 | inconclusive: 20 µM [inhibitor, partial curve, poor fit]

SMILES | Potency
CC(=O)c1ccc(NC(=O)c2ccc(CSc3ccccc3)o2)cc1 | inconclusive: 17.8 µM [inhibitor, single point]
Nc1nonc1-n1nnc(C(=O)N/N=C/c2ccccc2)c1CSc1ccccc1 | inconclusive: 11.2 µM [inhibitor, partial curve]
Brc1ccc(CSc2ncn[nH]2)cc1 | inactive
Cc1onc(-c2ccccc2)c1C(=O)NC(=S)NNC(=O)c1ccc(O)cc1O | inconclusive: 14.1 µM [activator, partial curve]
O=C(/C=C/Nc1ccc(F)cc1F)c1cccs1 | inactive
CCc1cc(-c2n[nH]c(CCC(=O)O)c2-c2nc3ccccc3n2C)c(O)cc1O | inactive
COc1cc(/C=N/Nc2ccccn2)ccc1O | inactive
O=C(Cn1c(=O)n(Cc2ccco2)c(=O)c2c3c(sc21)CCCCC3)Nc1ccccc1 | inconclusive: 28.2 µM [inhibitor, single point]
CN1C(=O)/C(=C/c2ccco2)SC1=Nc1ccc(N2CCOCC2)cc1 | inactive
S=C(NCCSCc1ccc(Cl)cc1)Nc1ccccc1 | inconclusive: 39.8 µM [inhibitor, single point]
O=C1S/C(=C\c2ccc(N3CCOCC3)o2)C(=O)N1c1ccccc1 | inconclusive: 39.8 µM [inhibitor, single point]
CC(Sc1nc(=O)cc(N)n1CCc1ccccc1)C(=O)Nc1ccc(Cl)cc1 (centres undefined) | inconclusive: 11.2 µM [inhibitor, partial curve]
COc1cc(OC)cc(C(=O)Nc2nnc(NC(=S)Nc3ccccc3)s2)c1 | inconclusive: 39.8 µM [inhibitor, single point]
CCOc1ccc(NC(=S)NN2C(C)CCCC2C)cc1 (centres undefined) | inactive
O=C(O)/C=C/C(=O)c1ccc2c(c1)NC(=O)CO2 | inconclusive: 14.1 µM [inhibitor, partial curve]
CC1(OC(=O)c2ccc(Cl)nc2)C(=O)C=C2C=C3CCCN3C=C2C1=O (centres undefined) | inconclusive: 7.08 µM [inhibitor, partial curve] and inconclusive: 7.08 µM [inhibitor, single point]
Cc1cc(C)cc(C(=O)OCC(=O)NCc2cccs2)c1 | inactive
CCOC(=O)c1cc2c(ccn2C)n1CC(=O)N(C)C | inactive
COc1ccc(C2c3c(n(C)c4ccccc34)C(=O)N2CC(=O)Nc2ccc(C)c(Cl)c2)cc1 (centres undefined) | inconclusive: 39.8 µM [inhibitor, single point]
CC(=O)Nc1cc(OC(C)=O)c2nonc2c1OC(C)=O | active: 2 µM
Cc1ccc(NC(=O)Cn2cc(S(=O)(=O)c3ccc(C)cc3)c(=O)c3cc4c(cc32)OCO4)cc1 | inconclusive: 0.1 µM [inhibitor, full curve, poor fit]
CCN(Cc1ccncc1)C(=O)C(CO)c1ccccc1 (centres undefined) | inconclusive: 31.6 µM [inhibitor, single point] and inconclusive: 3.55 µM [inhibitor, single point]
